About 10 (0.005%) of roughly 200,000 compounds were called active. Inconclusive results, whose numbers are uncertain, are shown with a selection of clear calls. The call rests on the fitted dose curve; in most records, active means well fitted inhibition curve with a large enough effect; inconclusive means small, poorly fitted or top-dose-only effect, or effect the other way, or another doubt; inactive means no such curve, though single readings can be large or run the other way. No potency is given beside an inconclusive call; the fits are too rough.
Target: Lysosomal alpha-glucosidase (Homo sapiens) (UniProt P10253)
Assay: qHTS Assay for Inhibitors of Human alpha-Glucosidase as a Potential Chaperone Treatment of Pompe Disease;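 on activity change, negative = inhibition: plate controls were uninhibited enzyme wells for no effect and no-enzyme background for full effect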
Conditions: purified human GAA, 4-MU-alpha-glucoside fluorescence; activity change, negative = inhibition: at 76.9 µM (top of the series) unless noted
Procedure, shortened: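 Read-out is 4-methylumbelliferone fluorescence (Ex 365/Em 440 nm) after NaOH/glycine stop at pH 10. Enzyme 4 nM, substrate 400 uM, pH 5.0 citrate buffer, 20 min room temperature; AC50 from Hill-equation concentration-response.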
Potency means the concentration at half of the fitted maximal effect; tags describe the fitted curve by direction and shape.

Structure (SMILES) | Potency | activity change, negative = inhibition
NCCNc1ccc([N+](=O)[O-])c(Sc2nc3ccccc3[nH]2)c1 | inconclusive [inhibitor, partial curve] | 
CCOC(=O)c1c(C)[nH]c(C)c1C(=O)CSc1nc2ccccc2c(=O)n1-c1ccc(F)cc1 | inconclusive [inhibitor, single point] | 
CCOC(=O)Cn1c(=O)c2c(nc(Br)n2Cc2ccccc2)n(C)c1=O |  | inconclusive: -15% [inhibitor]
Cc1cccc(Cn2c(C(C)(C)C)cc3cccnc32)c1 | inconclusive [inhibitor, single point] | 
COc1ccc(-c2csc(Nc3ccc(C)cn3)n2)cc1 | inconclusive [activator, full curve, poor fit] | 
COc1ccc(NS(=O)(=O)c2ccc(OC)c3ccccc23)cn1 |  | inconclusive: -15.1% [inhibitor]
O=C(NC1CCCCCC1)c1cc2n(n1)C(C(F)(F)F)CC(c1ccco1)N2 (stereo unspecified) | inconclusive [inhibitor, single point] | 
COc1ccc(-n2cnnc2SCC(=O)c2ccc(S(=O)(=O)N3CCOCC3)cc2)cc1 | inconclusive [inhibitor, full curve] | 
C=CCn1c(C)cc(C(=O)CSc2nnc(-c3cccc(S(=O)(=O)N(CC)CC)c3)o2)c1C | inconclusive [inhibitor, partial curve, poor fit] | 
CC(C)Cn1c(-c2ccco2)nc2c(c(=O)c3ccccc3n2C)c1=O | inconclusive [inhibitor, single point] | 
CC(C)c1cc(NCC2CCCO2)n2c(nc3ccccc32)c1C#N (stereo unspecified) | inconclusive [activator, partial curve] | 
COc1ccc(CN=C2NC(=O)CC(C(=O)Nc3ccccc3C)S2)cc1 (stereo unspecified) | inconclusive [inhibitor, single point] | 
COc1ccc(CNC(=O)CN2C(=O)C(C)N(c3ccc(C)cc3)C2=O)cc1 (stereo unspecified) | inconclusive [inhibitor, single point] | 
Cc1cc(C)nc(N/N=C/c2cc(C)n(CC(F)(F)F)c2C)n1 | inconclusive [inhibitor, partial curve] | 
O=C(NCc1ccccn1)C1CN(S(=O)(=O)c2ccccc2)CCN1S(=O)(=O)c1ccccc1 (stereo unspecified) |  | inconclusive: 14.4% [activator]
O=c1[nH]c2c(c3c1CCCC3)CCCC2 |  | inconclusive: -20% [inhibitor]
COc1ccc(-c2cn3cc(C)ccc3n2)cc1OC |  | inactive: -1.07%
CCCc1cc(-c2n[nH]c(=S)n2-c2cccc(C)c2)cs1 | inconclusive [inhibitor, partial curve, poor fit] | 
CC(/C=N/NC(=O)c1ccco1)=C\c1ccccc1 | inconclusive [inhibitor, single point] | 
Cc1sc2nc(CC(N)=O)[nH]c(=O)c2c1-c1ccccc1 |  | inconclusive: -19.6% [inhibitor]
CC(n1cnnn1)C12CC3CC(CC(C3)C1)C2 (stereo unspecified) | inconclusive [inhibitor, partial curve] | 

Structure (SMILES) | Potency | activity change, negative = inhibition
CCOC(=O)c1oc2nc(C(C)C)c3c(c2c1N)CCC3 | inconclusive [activator, single point] | 
Cc1cccc2nc(CSc3ccc(Cl)cc3)cn12 |  | inconclusive: 16.2% [activator]
NC(=O)SCC(=O)Nc1ccc(Cl)cc1 | inconclusive [inhibitor, partial curve] | 
O=S(=O)(NCCCCCNS(=O)(=O)c1ccccc1)c1ccccc1 |  | inconclusive: -16.4% [inhibitor]
Cc1nc(SCC(=O)NC(=O)NCc2ccccc2)nc(C)c1C | inconclusive [inhibitor, full curve, poor fit] | 
COc1ccc2nc(NCCNC(=S)NCCCN3CCOCC3)c(C#N)cc2c1 |  | inconclusive: 16.2% [activator]
CCCC(=O)c1cc(-c2nc3ccccc3n2C)n(C)c1 | inconclusive [inhibitor, single point] | 
COc1ccc(NC(=O)CC2C(=O)N(c3cccc(C)c3)C(=O)N2C2CCCCC2)cc1 (stereo unspecified) | inconclusive [inhibitor, partial curve] | 
CCC(C)NC(=O)C1CN(S(=O)(=O)c2ccccc2)CCN1S(=O)(=O)c1ccccc1 (stereo unspecified) |  | inconclusive: -15.6% [inhibitor]
O=C(NC1CCCCC1)c1ccc2c(=O)n(CC3CCCO3)c(=O)[nH]c2c1 (stereo unspecified) | inconclusive [activator, partial curve] | 
O=C(N/N=C/c1cc([N+](=O)[O-])ccc1N1CCCCCC1)c1ccccn1 | inconclusive [inhibitor, full curve] | 
CCOC(=O)Cn1c(=NC(=O)c2nc3ccccc3s2)sc2cc(S(N)(=O)=O)ccc21 |  | inconclusive: 17.2% [activator]
COc1ccc2c(c1)c1ncn(CCN3CCCC3)c(=O)c1n2C |  | inconclusive: 24.3% [activator]
Cc1cc(-c2csc(NC(=O)c3ccc(=O)[nH]c3)n2)c(C)n1Cc1ccccc1 | inconclusive [inhibitor, full curve] | 
CCCCNC(=O)CSc1nc(O)cc(=O)n1C1CCCC1 | inconclusive [inhibitor, full curve] | 
CSc1ccc(/C=C/C(=O)c2ccc(O)cc2)cc1 | inconclusive [inhibitor, single point] | 
Cc1cc(C(=O)COC(=O)CC2Sc3ccccc3NC2=O)c(C)n1-c1ccc2c(c1)OCO2 (stereo unspecified) | inconclusive [inhibitor, partial curve] | 
O=C(NC1CCCC1)c1ccccc1-c1ccccc1 | inconclusive [inhibitor, single point] | 
CC(=O)c1cccc(NC(=O)C2CCCN2S(=O)(=O)c2cccc3cccnc23)c1 (stereo unspecified) |  | inconclusive: -20.8% [inhibitor]
Cc1cc(C)n(-c2nncc(-c3ccccc3)n2)n1 | inconclusive [inhibitor, single point] | 

Reference: PubChem BioAssay AID1466 (National Center for Advancing Translational Sciences (NCATS), 2008)
